# Measurements from PubChem BioAssay AID1030 (National Center for Advancing Translational Sciences (NCATS), 2008).
# The campaign covered roughly 220,000 compounds. About 16,000 (7.3%) were called active. The inconclusive results got no clear call from the source; some entries with a clear call stand among them for comparison. Calls come from the whole dose curve; as a rule, active = well fitted inhibition curve with a large enough effect (not every such curve was filed as active); inconclusive = small, poorly fitted or top-dose-only effect, or another doubt; inactive = no such curve, though single readings can be large or run the other way. Potencies of inconclusive entries are left out as doubtful fits.
# Biological target: Aldehyde dehydrogenase 1A1 (Homo sapiens) (UniProt P00352)
# Experiment: qHTS Assay for Inhibitors of Aldehyde Dehydrogenase 1 (ALDH1A1);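 for activity, negative = inhibition: plate controls were no enzyme wells and a reference inhibitor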
# Details: Purified ALDH1A1, NADH fluorescence, propionaldehyde substrate; series mostly up to 75.3 µM; activity, negative = inhibition: at the top concentration
# Potency is the fitted concentration of half-maximal effect; tags give direction and shape of the fitted curve.
# Sequence of UniProt P00352 (P00352 whole entry, looked up): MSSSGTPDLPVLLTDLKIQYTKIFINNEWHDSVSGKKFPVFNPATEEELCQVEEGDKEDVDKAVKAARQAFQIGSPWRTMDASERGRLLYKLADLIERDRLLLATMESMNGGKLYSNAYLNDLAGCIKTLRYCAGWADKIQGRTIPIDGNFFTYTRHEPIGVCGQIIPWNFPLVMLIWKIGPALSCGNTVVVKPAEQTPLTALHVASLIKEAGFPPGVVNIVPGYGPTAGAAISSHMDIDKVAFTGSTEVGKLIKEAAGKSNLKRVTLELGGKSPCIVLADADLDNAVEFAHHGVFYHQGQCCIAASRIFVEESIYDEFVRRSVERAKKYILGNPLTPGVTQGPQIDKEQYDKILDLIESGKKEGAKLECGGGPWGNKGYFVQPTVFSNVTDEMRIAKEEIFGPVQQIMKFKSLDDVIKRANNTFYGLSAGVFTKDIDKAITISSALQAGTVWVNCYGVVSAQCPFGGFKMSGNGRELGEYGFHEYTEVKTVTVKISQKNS
Structure (SMILES),Potency,"activity, negative = inhibition"
CC1(C)Cc2ccccc2-c2n[nH]c(=S)n21,active: 12.6 µM,–
C/C(=N\NS(=O)(=O)c1ccc(C)cc1)c1cccs1,"inconclusive [inhibitor, single point]",–
O=c1c2ccccc2nnn1CSc1nnnn1-c1ccccc1,–,inactive: -10.9%
CC(=O)Nc1cc(OC(=O)c2ccco2)cc(OC(=O)c2ccco2)c1,–,inactive: 13.3%
O=C1c2ccccc2-c2c1cccc2C(=O)N1CCCCC1,–,inactive: -4.32%
CCCc1nc2ccccc2c(=O)n1NC(=O)c1c(O)c2ccccc2[nH]c1=O,"inconclusive [inhibitor, single point]",–
CCOC(=O)N1CCN(Cc2ccc(F)cc2F)CC1,"inconclusive [inhibitor, single point]",–
c1ccc(NCCCNc2ccccc2)cc1,active: 20 µM,–
Nc1ccc2c(c1)C(=O)N(CCCCCC(=O)O)C2,"inconclusive [inhibitor, partial curve]",–
CCN(CC)C(=S)SCC(=O)NC12CC3CC(CC(C3)C1)C2,active: 4.47 µM,–
CCCCOc1ccccc1C1NC(=O)NC(C)=C1C(=O)OCc1ccco1 (configuration not stated),"inconclusive [inhibitor, single point]",–
COc1ccc(CCNC(=O)CSC2=Nc3ccccc3C3=NC(C(C)C)C(=O)N23)cc1OC (configuration not stated),"inconclusive [inhibitor, single point]",–
O=C(CSc1nc2ccccc2c2ccccc12)c1ccccc1,–,inactive: -11.7% [at 13.5 µM]
CC(C)(C)C1CCc2c(sc3nc(SCC(N)=O)nc(N)c23)C1 (configuration not stated),–,inactive: -2.86%
COc1cc(NC(=O)c2cc3ccccc3o2)c(OC)cc1Cl,"inconclusive [inhibitor, single point]",–
C=CCc1c(C)nc(SCc2nc3ccccc3c(=O)[nH]2)[nH]c1=O,active: 14.1 µM,–
Cc1ccccc1-n1c(C)nnc1SCC(=O)N1CC(=O)Nc2ccccc21,–,inactive: -2.77%
O=C(CCCN1C(=O)c2ccccc2C1=O)NCCC1=CCCCC1,"inconclusive [inhibitor, single point]",–
CCCCCS(=O)(=O)CCCCCCCCCCn1c(-c2ccc(O)cc2)c(C)c2cc(O)ccc21,"inconclusive [inhibitor, single point]",–
COc1cccc(-c2cc3nc4c(c(N5CCC6(CC5)OCCO6)n3n2)CCCC4)c1,"inconclusive [inhibitor, single point]",–
Fc1ccc(NC(=S)N/N=C/c2cccc(Br)c2)c(F)c1,–,inactive: 5.3%
COC(=O)N/N=C(C)\C=C\c1ccco1,"inconclusive [inhibitor, single point]",–
